Laboratory results from PubChem BioAssay AID463173 (ICCB-Longwood Screening Facility, Harvard Medical School, 2010).
The whole screen tested about 52,000 compounds, of which about 4,300 (8.3%) were called active. Rule as the data show it: active = survival mostly below about 52% (no sharp cut-off); inactive = mostly above about 56%. The list shows a part of the results.

Test system: DeltatarO mutant
Test: growth inhibition of S. aureus wild type versus tarO mutant, primary screen, teichoic acid synthesis inhibitors, RN4220, OD600 (AID 463173)
Settings: OD600, 18 h, active compounds read low, screened at 18.75 µg/mL (by protocol)

SMILES | survival
Cc1ccc(CSc2ncc(Cl)c(C(=O)Oc3ccccc3F)n2)cc1 | inactive: 101%
Cc1cn(C)c(CC(=O)Nc2cccc(C#N)c2)c1C(=O)O | inactive: 95%
COc1ccc(N2CCN(c3nc4ccc(C(=O)c5ccccc5)cc4n4cnnc34)CC2)cc1 | inactive: 77%
Cc1cccc2c1-c1sc(C(=O)NCCCN3CCN(c4ccccc4F)CC3)cc1CO2 | inactive: 63%
CCOc1ccc(CN2CCN(Cc3ccc4c(c3)c3ccccc3n4CC)CC2)cc1 | active: 0%
O=C(CCn1c(=O)c2ccccc2n(Cc2cccc(F)c2)c1=O)NCc1ccc2c(c1)OCO2 | inactive: 99%
Cc1ccc(-c2c(C(=O)N3CCN(c4ccc(F)cc4)CC3)oc(=O)c3ccccc23)cc1 | inactive: 103%
COc1cc(OC)c(OC)cc1CN1CCc2nc(N3CCN(C)CC3)ncc2C1 | inactive: 84%
Cc1cc(C)cc(N2C(=O)N(Cc3cc(=O)n4ccccc4n3)c3ccccc3S2(=O)=O)c1 | inactive: 117%
CCOc1ccc(C(=O)/C=C/c2cn(CC(O)CN3CCc4ccccc43)c3ccccc23)cc1 (configuration not stated) | inactive: 56%
CCOC(=O)C1=C(C)NC(=O)NC1c1c(O)ccc2ccccc12 (configuration not stated) | inactive: 99%
CCc1nn(CC(=O)NCc2ccc(C)cc2)c(=O)c2cc3occc3n12 | inactive: 105%
CC(C)Oc1ccc(CNC(=O)c2ccc3c(c2)nc2n3CCOC2)cc1 | inactive: 83%
COc1cc(NC(=O)N2CCSc3ccccc32)cc(OC)c1OC | active: 52%
CCN(c1ccccc1C)S(=O)(=O)c1nnc(NC(=O)c2ccccc2C)s1 | active: 15%
COc1ccc(NC(=O)Cc2c(C(=O)O)[nH]c3ccccc23)cc1OC | inactive: 76%
NC(=O)CSc1nnc2c(n1)CCCC2 | inactive: 83%
O=C(CCS(=O)(=O)c1nc(-c2ccc3c(c2)OCO3)cc(C(F)(F)F)n1)Nc1ccc(Br)cc1 | inactive: 94%
Cc1ccc(NC(=O)c2oc3ccc(S(=O)(=O)N4CCOCC4)cc3c2C)c(C)c1 | inactive: 125%

SMILES | survival
COc1ccc(C(=O)Nc2ccc3nc4c(c(Nc5ccccc5OC)c3c2)CCCC4)c(OC)c1 | active: 48%
COc1cc(C2c3c(oc4ccc(F)cc4c3=O)C(=O)N2Cc2ccc3c(c2)OCO3)ccc1O (configuration not stated) | inactive: 101%
O=C1CC(c2c(F)cccc2Cl)c2c(ccc3ccccc23)N1 (configuration not stated) | inactive: 72%
CCCCN(CC)C(=O)c1c[nH]c2ccc(S(=O)(=O)N(C)c3ccc(Cl)cc3)cc2c1=O | inactive: 95%
COC(=O)c1cccnc1-n1c(=O)c2cccnc2n(CC(=O)Nc2cccc(C)c2)c1=O | inactive: 149%
CCOC(=O)c1ccccc1NC(=O)CN1C(=O)CC(c2ccccc2)Sc2ccccc21 (configuration not stated) | inactive: 92%
Fc1ccccc1N1CCN(c2ncnc3onc(-c4ccc(Cl)cc4)c23)CC1 | active: 54%
COc1ccc(Cl)cc1NC(=O)CSc1nc2c(oc3ccccc32)c(=O)n1Cc1ccco1 | inactive: 74%
Cc1ccc(C(=O)Nc2ccc(C(=O)O)cc2)cc1S(=O)(=O)N1CCC(C)CC1 | inactive: 73%
Cc1cccc(-c2nc3scc(CCNS(=O)(=O)c4ccc(F)c(C(F)(F)F)c4)n3n2)c1 | inactive: 83%
CCCCOc1ccc(C(=O)NCc2cn3cccc(C)c3n2)cc1 | inactive: 85%
CCCCOc1ccc(C(=O)NCCc2sc3nc(-c4ccc(OC)cc4)nn3c2C)cc1 | inactive: 91%
CCOc1cc2c(cc1OCC)C(CC(=O)O)N(C(=O)Nc1ccc(Br)c(C)c1)CC2 (configuration not stated) | inactive: 81%
O=C(Nc1ccc(N2CCN(c3ccc(F)cc3)CC2)c(C(=O)O)c1)c1cccs1 | inactive: 89%
Cc1ccc(NC(=O)/C=C/c2ccco2)cc1F | inactive: 99%
CCOc1ccc(N(C)C(=O)C2CCN(S(=O)(=O)c3c(C)noc3/C=C/c3ccc(C)cc3)CC2)cc1 | inactive: 107%
CCN(CC)c1nn2c(=O)c(C(=O)NCCc3ccccc3C)cnc2s1 | inactive: 117%
O=C(NCc1ccc(Cl)cc1)C1CCC(CNS(=O)(=O)c2ccccc2)CC1 (configuration not stated) | inactive: 97%
Cc1cccc(CN2CCN(CC(=O)NCCc3ccc(Cl)cc3)C2=O)c1 | inactive: 59%

SMILES | survival
CCCCNC(=O)c1c[nH]c2ccc(C)cc2c1=O | inactive: 89%
COc1ccc(CNC(=O)C2CC(O)CN2C(=O)Nc2ccccc2)cc1 (configuration not stated) | inactive: 84%
Cc1nc2ccc(C(=O)N3CCN(Cc4ccccc4)CC3)cc2[nH]1 | inactive: 104%
CCCCCSc1nnc2c(n1)[nH]c1c(C)cccc12 | inactive: 79%
COCCn1c(SCC(=O)c2ccc(C)cc2)nc2cc(C(=O)NC3CCCC3)ccc2c1=O | inactive: 89%
FC(F)(F)c1cc(Nc2nc3ccccc3c3nncn23)ccc1Cl | inactive: 91%
Nc1nc2c3cccc4cccc(c(=O)n2n1)c43 | inactive: 73%
O=C(NCCc1ccccc1)C1CCN(c2nc3ccccc3nc2C(F)(F)F)CC1 | inactive: 102%
CCCNC(=O)c1cnn(-c2ccc(C)c(C)c2)c1C1CCN(C(=O)OC(C)(C)C)CC1 | inactive: 90%
COc1ccc(NC(=O)c2ccco2)cc1NC(=O)c1ccc(C#N)cc1F | inactive: 116%
O=C(NCCNC1CCCC1)c1cccs1 | inactive: 113%
Cc1c(C(=O)Nc2ccc(F)c(Cl)c2)sc2nc3n(c(=O)c12)CCC3 | inactive: 58%
O=C(Cn1c(=O)c(CNc2ccccc2)cc2cc3c(cc21)OCCO3)Nc1ccccc1Cl | inactive: 131%
CC(C)(C)OC(=O)N1CCC(c2c(C(=O)NCCN3CCOCC3)cnn2-c2cccc(Cl)c2)CC1 | inactive: 67%
O=C(C1CC1)N1CCc2cc(Br)cc(S(=O)(=O)Nc3ccc(F)c(F)c3)c21 | inactive: 110%
CCCOc1ccc(C(=O)N2CCC(c3nc4ccccc4s3)CC2)cc1 | active: 36%
CCc1ccc(/C=C(/C#N)c2nc(-c3ccc(C)cc3)cs2)cc1 | active: 8%
Cc1cc(C)cc(N2CCn3c2nc2c3c(=O)n(Cc3c(F)cccc3Cl)c(=O)n2C)c1 | inactive: 89%
Cc1cccc(NC(=O)CSc2nc3n[nH]c(C)c3c(=N)n2-c2cccc(Cl)c2)c1 | inactive: 55%
